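Test compounds were applied to cells in 96-well plates for 48 hours at 5 doses. Here, GI50 denotes the concentration required for 50% inhibition of growth.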 Active and inactive are the calls of the source. Cut-off read from the data, not from the text of the source: active = GI50 up to about 1.1 µM and inactive = higher.

The assay relates to NCI-H322M. Put plainly: inhibition of tumour cell growth, NCI panel, 48 h.
For `Nc1nc(O)c(N)c(NCCOCP(=O)(O)O)n1`, the GI50 is inactive: > 100 µM. The value for `COC1C(OC(=O)c2ccc(C)[nH]2)C(O)C(Oc2ccc3c(O)c(NC(=O)c4ccc(O)c(CC=C(C)C)c4)c(=O)oc3c2Cl)OC1(C)C` (configuration not stated) was inactive: 20.3 µM; that for `O=[N+]([O-])c1ccc(Nc2cccc3c4cc[nH]c(-c5ccccc5)c-4nc23)c([N+](=O)[O-])c1` was inactive: > 100 µM. The value for `CCNCCCCNCCCCNCCCCNCCCCNCC` was inactive: 23.2 µM; that for `O=C1Nc2ccc(Br)cc2/C1=N/Nc1ccc([N+](=O)[O-])cc1` was inactive: 14 µM.

Turning to `Clc1cccc(Cl)c1/C=N/C12CC3CC(CC(C3)C1)C2`, the GI50 is inactive: > 10 µM. Consider `O=C1NC(=S)NC(=O)C1C(c1ccccc1[N+](=O)[O-])C1C(=O)NC(=S)NC1=O.c1ccncc1`, for which the GI50 was inactive: > 100 µM. The value for `COC(=O)C(C)Oc1ccc(O)cc1` (configuration not stated) was inactive: > 100 µM. The value for `CC(C)(C)c1ccc2c(c1)CNCCNCCNCc1cc(C(C)(C)C)ccc1OCC1(CO2)COc2ccc(C(C)(C)C)cc2CNCCNCCNCc2cc(C(C)(C)C)ccc2OC1` was active: 0.912 µM. As to `O=C1C(C2=[N+]([O-])c3ccccc3C2=O)=[N+]([O-])c2ccccc21`, the GI50 is inactive: 34.9 µM. With `C=C1CC(Cn2ccc(=O)[nH]c2=O)(c2ccc(Cl)cc2)OC1=O` (configuration not stated), the GI50 was inactive: 17 µM. As for `ON[C@H]1C[C@@H](n2cnc3c(NC4CC4)ncnc32)[C@H](O)[C@@H]1O`, the GI50 is inactive: > 100 µM. `Cc1ccc(C2(c3ccc(F)cc3)OC(=O)c3ccccc32)c(O)c1` (configuration not stated): the GI50 was inactive: 13 µM.

On to `O=c1[nH]nc(Cc2ccccc2)[nH]1`, for which the GI50 was inactive: > 100 µM. The value for `COC1(OC)C(/C(N)=C\O)=NC(C)(C)N1O` was inactive: > 100 µM. With `NCCCN1CCN(CC(=O)O)CCN(CCCN)CCN(CC(=O)O)CC1`, the GI50 was inactive: > 81.5 µM. The value for `O=C1/C=C(/c2ccc(O)cc2)[C@@H](O)Cc2ccc(O)cc2O1` was inactive: 80.7 µM. The value for `O=C1CC(C(OCc2ccccc2)C(OCc2ccccc2)C(OCc2ccccc2)C(COCc2ccccc2)OCc2ccccc2)CC(=O)N1` (configuration not stated) was inactive: > 100 µM. The value for `C#CCOC(=O)C(=[N+]=[N-])C(=O)CC(C)C` was inactive: > 10 µM; that for `Cc1cc(O)c2c(c1)CC(O)C1=C2C(=O)c2c(O)ccc(OC3CC(O)C(OC4CC(OC5CCC(O)C(C)O5)C(O)C(C)O4)C(C)O3)c2C1=O` (configuration not stated) was inactive: 2.47 µM.

Regarding `CCOC(=O)C1C(c2ccc(Cl)cc2Cl)NC(c2ccc(C)cc2)C(C(=O)OC)S1(=O)=O` (configuration not stated), the GI50 was inactive: > 100 µM. For the compound `CCCCI(O)OS(=O)(=O)c1ccc(C)cc1`, the GI50 is inactive: > 100 µM. For the compound `CCN1CCN=c2c3cc(OC)ccc3n3cnc4ccc1c2c43`, the GI50 is active: 0.207 µM. For the compound `O=C1NC(=O)c2ccccc2/C1=C/c1ccc2c(c1)OCO2`, the GI50 is inactive: 38.7 µM. The value for `Cn1cc2ccccc2c1-c1nc(F)nc(OCC(=O)[C@H]2CCC3[C@@H]4CCC5=CC(=O)CC[C@]5(C)C4[C@@H](O)C[C@@]32C)n1` (some centres not stated) was inactive: 18.8 µM. The value for `COC1(OC)C2(Cl)C(Cl)=C(Cl)C1(Cl)C1c3ccc(C(C)=O)c4cccc(c34)C12` (configuration not stated) was inactive: 18 µM; that for `Cc1nc2ccccn2c1/N=N/c1ccc(C(=O)NN)cc1` was inactive: 36 µM. The value for `Cn1cnc([N+](=O)[O-])c1Sc1nc2cccnc2s1` was inactive: 53.1 µM; that for `COC(=O)c1onc(C2OC(C)(C)OC2C(O)COC(c2ccccc2)(c2ccccc2)c2ccccc2)c1C(=O)OC` (configuration not stated) was inactive: > 100 µM; that for `O=C1CC[C@@H](S(=O)(=O)c2ccccc2)[C@H](/C=C/c2ccccc2)O1` was inactive: > 100 µM. As for `COC1=CC(=O)c2c(O)c3c(c(O)c2C1=O)OC1(Oc2c(cc4cc(C)oc(=O)c4c2O)CC1O)C3O` (configuration not stated), the GI50 is inactive: 38.5 µM. The value for `Cn1c(=O)[nH]c2[nH]c3ccccc3c2c1=O` was inactive: > 100 µM. The value for `C[Si](C)(C)OC1CC(=O)OC1n1cc(F)c(=O)[nH]c1=O` (configuration not stated) was inactive: > 34.4 µM; that for `O=C(NNC(=S)Nc1ccc(Cl)cc1)C12CC3CC(CC(C3)C1)C2` was inactive: 5.45 µM; that for `COc1ccc2c(c1)CCN=C2c1ccccc1CCCCl` was inactive: 55.5 µM. The value for `CC(=O)OC1COC(n2c(N)c(C#N)c(C)c(C#N)c2=S)C(OC(C)=O)C1OC(C)=O` (configuration not stated) was inactive: > 100 µM; that for `c1ccc(CSC2(SCc3ccccc3)CCCCC2)cc1` was inactive: > 10 µM; that for `Cc1cc(C)nc(NS(=O)(=O)c2ccc(NC(=O)c3cccc4c(NNc5ccc(S(=O)(=O)N=C(N)N)cc5)c5ccccc5nc34)cc2)n1` was inactive: > 50 µM. Regarding `CCCc1cc(OC(=O)c2c(O)cc(OC)cc2CCC)cc(O)c1C(=O)O`, the GI50 was inactive: 21.3 µM. The value for `COc1cc(C(=O)C/C(CCC(=O)Nc2ccccc2[N+](=O)[O-])=N\NC(=O)CC#N)ccc1O` was inactive: > 100 µM; that for `COC(=O)C(=O)C(C(=O)C(=O)Nc1ccc([N+](=O)[O-])cc1[N+](=O)[O-])c1nc2ccc(Cl)cc2nc1O` (configuration not stated) was inactive: > 100 µM. The value for `COC1=CCC=C(C[C@@H]2NCCc3cc(OC)c(OC)cc32)C1` was inactive: > 100 µM. The value for `CC(C)C(Nc1c2ccccc2[n+]([O-])c2ccccc12)C(=O)O` (configuration not stated) was inactive: > 100 µM; that for `C=CCN(N=O)C(=O)N(CCC)CCCC(NC(C)=O)C(=O)NCc1ccccc1` (configuration not stated) was inactive: > 100 µM. For the compound `O=C1N(c2ccc(Cl)cc2)C(=O)C2(SC=NN2Cc2ccccc2)N1c1ccc(Cl)cc1` (configuration not stated), the GI50 was inactive: > 100 µM.

As for `O=[N+]([O-])c1ccc(CSC2=C(c3ccc(Cl)cc3)S/C(=C3\SC(SCc4ccc([N+](=O)[O-])cc4)=C(c4ccc(Cl)cc4)S3)S2)cc1`, the GI50 is inactive: > 100 µM. The value for `CCc1cn2c(/C=N/N=C(N)N)c(-c3cc(C)c(Cl)cc3Cl)nc2s1` was inactive: 1.92 µM. Take `Brc1ccccc1C1SCc2nc3ccccc3n21` (configuration not stated): the GI50 was inactive: 30.3 µM. The value for `O=C1NC2(CCCC2)/C(=N\O)C12CCCC2` was inactive: > 100 µM. The value for `N#Cc1c(-c2ccc(Cl)cc2Cl)nc2[nH]nc(S)n2c1=O` was inactive: > 100 µM; that for `CCC(O)CCCCCCCCCCCCCCC(=O)O` (configuration not stated) was inactive: 68.5 µM. The value for `COc1ccc(Br)c(CCCCC(=O)O)c1` was inactive: > 100 µM; that for `O=C1Nc2ccccc2S/C1=C\c1ccc(C(F)(F)F)cc1` was inactive: > 100 µM. As to `CC[n+]1[b-](C(C)(C)C)n(/N=C/C(C)(C)C)[b-](C(C)(C)C)[n+]1CC`, the GI50 is inactive: > 100 µM.

As for `Cc1ccc(NC(=O)/C(=N/NC(=O)CC#N)C2C(=O)N(c3ccccc3)N=C2N)cc1C` (configuration not stated), the GI50 is inactive: > 100 µM. Take `O=C1/C(=C/c2ccc([N+](=O)[O-])cc2)Sc2scc(-c3cccc([N+](=O)[O-])c3)[n+]21`: the GI50 is inactive: 17 µM. The value for `CCOC(=O)CCn1ncc(Cl)c(Cl)c1=O` was inactive: 13.9 µM; that for `CCCCCCCCCCCCCC(=O)CC(=O)c1c(O)cccc1O` was inactive: > 100 µM; that for `CC1(CNCc2ccccc2)CC(CCc2ccccc2)N(C(=O)c2ccc([N+](=O)[O-])cc2)C1Cc1ccc(O)cc1` (configuration not stated) was inactive: 15.9 µM. The value for `C/C(=N\NC(=S)NCc1ccccc1)c1nc2cccnc2[nH]1` was inactive: 10.3 µM; that for `CC(/C=N\NC(=S)N(C)C)=N/NC(=S)N(C)C` was active: 0.507 µM. The value for `Cc1cc(O)c2c(c1)C(O)(c1ccc3c(c1O)C(=O)c1c(O)cc(C)cc1C3(O)C1OC(CO)C(O)C(O)C1O)c1cccc(O)c1C2=O` (configuration not stated) was inactive: 17.4 µM; that for `Nc1ncc(Cc2nc3ccccc3s2)s1` was inactive: > 100 µM. Take `CCOP(=O)(CCCC(O)CNc1cc(Cl)nc(N)n1)OCC` (configuration not stated): the GI50 was inactive: > 100 µM. On to `COCCOCCOC1=CC(=O)c2c(O)ccc(O)c2C1=O`, for which the GI50 was inactive: 1.6 µM. The value for `COc1cc(/C=C2\S/C(=N/Nc3nc(-c4ccc(Br)cc4)cs3)NC2=O)cc(OC)c1OC` was inactive: 21.9 µM. As to `CCOC(=O)c1c(N=P(c2ccccc2)(c2ccccc2)c2ccccc2)nnc(-c2ccccc2)c1-c1ccccc1`, the GI50 was inactive: > 100 µM. The value for `CC#C[C@]1(O)CCC2[C@@H]3CCC4=CC(=O)CCC4=C3[C@@H](c3ccc(N(C)C)cc3)C[C@@]21C` (some centres not stated) was inactive: 22.5 µM; that for `N=C(N)NS(=O)(=O)c1ccc(NC(=O)c2ccc3nc4ccccc4c(N)c3c2)cc1` was inactive: 69.8 µM. The value for `CCN(CC)C(=S)/N=C(\SC(=S)N(CC)CC)c1ccccc1` was inactive: > 51.1 µM; that for `O=C(CCN1CCC(CCO)CC1)Nc1ccc2c(c1)C(=O)c1ccc(NC(=O)CCN3CCC(CCO)CC3)cc1C2=O` was inactive: 4.39 µM. The value for `CNC(=O)CCCNC(=O)CCCC(=O)OC` was inactive: > 100 µM. On to `CC(Nc1ccc(Cl)c(Cl)c1)c1ccncc1` (configuration not stated), for which the GI50 was inactive: 2.21 µM.

As for `CCOC(=O)c1cc(/C=C/C(C)=C/C(=O)OC)n(C)c1C`, the GI50 was inactive: > 100 µM. The value for `CNC(C)Cc1ccccc1O` (configuration not stated) was inactive: > 100 µM; that for `NNC1=Nc2ccc(Cl)cc2C(=S)N2CSCC12` (configuration not stated) was inactive: > 100 µM; that for `N/N=c1\[nH]c2ccccc2o1` was inactive: > 100 µM. The value for `CN1OC2OC(=O)OC2[C@H]1[C@H]1O[C@H](c2ccccc2)OC1(C)c1cc(OC(=O)c2ccccc2)ccc1OC(=O)c1ccccc1` (some centres not stated) was inactive: > 50 µM; that for `Cc1ccc(/C=C2\CCCc3ccccc3C2=O)cc1` was inactive: 31 µM; that for `COc1ccc2nc3cc(Cl)ccc3c(NC(C)CCCN(CCCl)CCCl)c2c1` (configuration not stated) was active: 0.783 µM. For the compound `C[N+](C)(N)CCC[N+](C)(C)N`, the GI50 was inactive: > 100 µM. The value for `NCCOCCOCC(=O)O` was inactive: > 100 µM.
